The values below come from PMC7819943, “Rice protein-binding microarrays: a tool to detect cis-acting elements near promoter regions in rice”.

The list shows a part of the results.

For this experiment, the target named is T1, OsWOX13 (Oryza sativa, UniProt Q5QMM3 1-267).
T1 sequence: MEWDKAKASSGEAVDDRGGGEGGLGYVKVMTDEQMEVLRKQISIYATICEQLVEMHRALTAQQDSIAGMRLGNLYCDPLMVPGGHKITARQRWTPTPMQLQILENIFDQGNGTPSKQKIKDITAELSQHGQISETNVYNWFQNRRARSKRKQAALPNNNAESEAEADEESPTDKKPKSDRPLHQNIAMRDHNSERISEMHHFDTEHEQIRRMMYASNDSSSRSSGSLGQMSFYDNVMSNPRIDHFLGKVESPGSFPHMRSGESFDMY
Put plainly: protein-binding microarray (RPBM); PBS, 2% BSA, 51.3 ng/ul salmon testes DNA, 50 uM zinc acetate, 200 nM TF, 25 C, 1 h; high values mean tight binding. The note with it: protein: recombinant; tags: N-terminal polyhistidine and DsRed monomer fusion (pET32a); label: CyDye5-dUTP incorporated in the synthesized complementary strand; 3' TTTTT single-stranded linker to array surface; dsDNA, one strand shown. Summed up:
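Per-feature fluorescence intensity (arbitrary units), read on an Axon 4000B scanner, is the binding signal. Transcription factors carrying an N-terminal polyhistidine tag and DsRed fusion were expressed in E. coli BL21-CodonPlus and purified on Ni–NTA. A custom Agilent array, made double-stranded by primer extension with Cy5-dUTP and blocked with 2% BSA, was incubated with 200 nM protein in PBS, 2% BSA, salmon testes DNA and 50 µM zinc acetate at 25 °C for 1 h and then washed.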
Turning to “GTACCAATTTAATTTATGTATCAATAAGAACATATCATGTCGGAGTCACCTAGTGCAG”, the binding signal is 22800 fluorescence intensity (a.u.).
With “TTAACTTAATTTGGAAGTAAATAAAGGCTCCTCCAAAACTCGGAGTCACCTAGTGCAG”, the binding signal was 6680 fluorescence intensity (a.u.).
With “TTTATGTAATTATCATTTAATTTATTGTGCCTTGATTCATCGGAGTCACCTAGTGCAG”, the binding signal is 24400 fluorescence intensity (a.u.).
Then “GCTCCAATTGACTGTTCCTTGATGCTCATACCATCTTTGTCGGAGTCACCTAGTGCAG”, with 21000 fluorescence intensity (a.u.).
To “AATAATTTGTCTGCGGAAGCTAGCTAGGACCACGGCCATTCGGAGTCACCTAGTGCAG” belongs 8770 fluorescence intensity (a.u.); to “GTCATGTGATTTGTAATAATATAAAACAGAGAGAGTACACCGGAGTCACCTAGTGCAG”, 25000 fluorescence intensity (a.u.); to “GATTTAATTTATTTTGGTAATGATTTGTGGATGATTTTGGCGGAGTCACCTAGTGCAG”, 31600 fluorescence intensity (a.u.).
Then “AGCAATTATCTCGTTCATCATCATCACCATGATGGCATTGCGGAGTCACCTAGTGCAG”, with 8710 fluorescence intensity (a.u.).
As for “GTACACTTCTCAAATCAATCATAAATCCAATTTGCACATACGGAGTCACCTAGTGCAG”, the binding signal was 10600 fluorescence intensity (a.u.).
Regarding “GATAATCACTGTAATTAAAGTCAGTTAATTGGTTTGAATCCGGAGTCACCTAGTGCAG”, the binding signal is 44100 fluorescence intensity (a.u.).
Regarding “TACATTACAGCTATGTAATTACTGTACTTCATTGGATGGTCGGAGTCACCTAGTGCAG”, the binding signal is 3960 fluorescence intensity (a.u.).
As for “TAAAGAAATTGAAACGGTGTGATGGAAAAGTTGAAAGTTTCGGAGTCACCTAGTGCAG”, the binding signal was 6700 fluorescence intensity (a.u.).
In the case of “GCAGTGACAGCCGGCGCTAATCATGCCGTCAAGCTGCCCTCGGAGTCACCTAGTGCAG”, the binding signal is 3880 fluorescence intensity (a.u.).
To “AAAGAATTAAATTGCCAAGTTGGGCCCCAAAGCACACGGACGGAGTCACCTAGTGCAG” belongs 7900 fluorescence intensity (a.u.); to “GTTGATTTACTGAATTTGGTGTGACAAGTGAAGCATGAGGCGGAGTCACCTAGTGCAG”, 32000 fluorescence intensity (a.u.).
Then “GTAAAATTGGTTCGAAATGTGAGGTGAATATATATATGTCCGGAGTCACCTAGTGCAG”, with 5270 fluorescence intensity (a.u.); and “CATTGACAAACTCGATCAATGACATATTATGTATAGAGCACGGAGTCACCTAGTGCAG”, with 10500 fluorescence intensity (a.u.).
To “AGGGGAAGATAATTAATAGACTTGCCGGAGTTAGCACGGCCGGAGTCACCTAGTGCAG” belongs 9550 fluorescence intensity (a.u.).
Consider “ATGATCAATTTGTCAAAATTACGGGATTTTAATTTCGTGGCGGAGTCACCTAGTGCAG”, for which the binding signal is 30500 fluorescence intensity (a.u.).
Take “GTGAAGCCAAACAATTAAATTTAAATTTCTCATCTCGTCACGGAGTCACCTAGTGCAG”: the binding signal is 5130 fluorescence intensity (a.u.).
For “TGGTCTCTTGAGGATAATTGGTAGAATAACCTGACACTGTCGGAGTCACCTAGTGCAG”, the binding signal was 3330 fluorescence intensity (a.u.).
Consider “ATTAATTGGTCCACGCCTTTTCACGTGCCTCTTGCCGCACCGGAGTCACCTAGTGCAG”, for which the binding signal is 25800 fluorescence intensity (a.u.).
To “TTCTGATTACGCGGCGAAACCGCTCGCGCCATGGCGGTTGCGGAGTCACCTAGTGCAG” belongs 5460 fluorescence intensity (a.u.).
For the sequence “TACCAGTATATATCAATCAGGTCAATTATGTTGCAACATCCGGAGTCACCTAGTGCAG”, the binding signal was 23700 fluorescence intensity (a.u.).
Turning to “CGCCATCAATCACCATCTACACCTCTAGAGAGCTAATTAACGGAGTCACCTAGTGCAG”, the binding signal is 19800 fluorescence intensity (a.u.).
Then “GTCATCAATGATTCAGTGTTAACTACTCCATTTCTAGAAACGGAGTCACCTAGTGCAG”, with 3880 fluorescence intensity (a.u.); and “TAAAATTAAGCTCCAAATAAACTATATAAAATTATGTATTCGGAGTCACCTAGTGCAG”, with 4090 fluorescence intensity (a.u.); and “GAGATCTATTGATTGATTTTGAAGCAGAGGAGGAGCAGAGCGGAGTCACCTAGTGCAG”, with 26300 fluorescence intensity (a.u.).
For the sequence “GATGATTAACGAGTCACTGTTACTACTACTTTCCCACCCTCGGAGTCACCTAGTGCAG”, the binding signal was 41200 fluorescence intensity (a.u.).
With “TTGATTTAAAGGATTGAAGCTTTCCAAATCCTATAAAATTCGGAGTCACCTAGTGCAG”, the binding signal is 5970 fluorescence intensity (a.u.).
Then “CGAGATAAATCACGGTAATCACAGCAACAGCAACAGCAACCGGAGTCACCTAGTGCAG”, with 10400 fluorescence intensity (a.u.); and “TAATACTATTTGATTAATCATGCGTTCATCCACCACTCCACGGAGTCACCTAGTGCAG”, with 11100 fluorescence intensity (a.u.).
To “GTAACTGAGTCAATCCAGCAACGCATTGACCATATGAGCTCGGAGTCACCTAGTGCAG” belongs 4780 fluorescence intensity (a.u.); to “TTTTATAATGATACTTAATTAATCATGTGCTAATAATCACCGGAGTCACCTAGTGCAG”, 9330 fluorescence intensity (a.u.).
On to “ATATATATATATATATATATATATATAAAACTGGATATAACGGAGTCACCTAGTGCAG”, for which the binding signal was 15900 fluorescence intensity (a.u.).
Turning to “ATTAAATTTTAAAATTTAATTTTAAATTGATTTTGATATTCGGAGTCACCTAGTGCAG”, the binding signal was 42600 fluorescence intensity (a.u.).
As for “AAATATAAATAATTTTGGATGGATGAGACGTATCCTAATTCGGAGTCACCTAGTGCAG”, the binding signal was 3240 fluorescence intensity (a.u.).
Then “TCTCCCTGATTGGTGGTGTTTGTTTGAAAAGAAAGTTTATCGGAGTCACCTAGTGCAG”, with 24100 fluorescence intensity (a.u.); and “GGGGATTGATTCCTTCCAAATCAAACCACCAAACCATCTTCGGAGTCACCTAGTGCAG”, with 25600 fluorescence intensity (a.u.).
Then “AATTGATTGTGTCACAGTATATATTATAGTGAGGGGTGGGCGGAGTCACCTAGTGCAG”, with 24500 fluorescence intensity (a.u.).
To “ATGAAATTGTGTAACTTCCTGCTGCCTATTCCATACAAATCGGAGTCACCTAGTGCAG” belongs 3250 fluorescence intensity (a.u.).
Consider “AATAATTAAACAGTTTTGTCTTGACATATATACTAGCATACGGAGTCACCTAGTGCAG”, for which the binding signal is 34400 fluorescence intensity (a.u.).
